Data: PubChem BioAssay AID1508642 (National Center for Advancing Translational Sciences (NCATS), 2021)
Hit rate of the full screen: of about 43,000 compounds, about 200 (0.47%) were called active. The inconclusive results got no clear call from the source; some entries with a clear call stand among them for comparison. The call rests on the fitted dose curve; in most records, active means well fitted cell-killing curve with a large enough effect; inconclusive means small, poorly fitted or top-dose-only effect, or effect the other way; inactive means flat fitted curve, though single readings scatter. Potencies of inconclusive entries are doubtful fits and often do not repeat.

Assay: Cell viability qHTS assay in S16 Pmp22-F2sN cells; further: nearly all actives have a fitted effect of over 65% in size
Settings: S16 Pmp22-F2sN Schwann cells (luciferase reporters placed in the Pmp22 gene) viability, CellTiter-Glo, 24 h; activity change, negative = cytotoxicity: at 57.5 µM (top of the series)
How it was run: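 Luminescence from CellTiter-Glo, read by CCD camera after a 15 min room-temperature incubation, served as the viability signal. Reporter Schwann cells (S16 Pmp22-F2sN) had been treated with pin-transferred compounds for 24 h at 37C.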
On the % scale 0 is the no-effect control and ±100 the full control effect; potency means the concentration at half of the fitted maximal effect; tags describe the fitted curve by direction and shape.

| SMILES | activity change, negative = cytotoxicity | Potency |
| --- | --- | --- |
| CC(=O)Nc1cccc(NC(=O)C(=O)NCCc2sc(-c3ccccc3)nc2C)c1 | inactive: -5.39% |  |
| CCC(C(=O)NCCc1ccc(SC)cc1)n1nc(C)c2sc3ccccc3c2c1=O (stereo unspecified) | inactive: 5.11% |  |
| CCOC(=O)c1cccc(NC(=O)CN2C(=O)c3ccccc3Sc3ncccc32)c1 | inactive: 5.67% |  |
| Cc1cc2oc(C(=O)Nc3c(C(=O)Nc4ccccc4)oc4ccccc34)cc(=O)c2cc1C |  | inconclusive: 31.6 µM [rising, single point] |
| CCN(CCCNC(=O)c1cc2c(=O)n(C)c3ccccc3c2s1)Cc1ccccc1 |  | inconclusive: 35.5 µM [cytotoxic, single point] |
| O=C(CSc1c2c(nc3ccc(Cl)cc13)CCCC2)N1CCN(c2cccc(Cl)c2)CC1 | inactive: -12.2% |  |
| COCCCNC(=O)c1oc2c(c1C)-c1nn(Cc3cccc(Cl)c3)cc1CC2 |  | inconclusive: 31.6 µM [cytotoxic, single point] |
| COc1cc(NS(=O)(=O)c2ccc3c(c2)CCN3S(C)(=O)=O)cc(OC)c1 |  | inconclusive: 44.7 µM [cytotoxic, partial curve, poor fit] |
| CCOC(=O)c1ccc(Nc2c(-c3ccc(O)c(OC)c3)nc3nc[nH]n23)cc1 |  | inconclusive: 28.2 µM [cytotoxic, single point] |
| Cc1cc(F)ccc1S(=O)(=O)NCC(c1ccco1)S(=O)(=O)c1cccs1 (stereo unspecified) |  | active: 15.8 µM |
| CC(C)Cn1c(=O)c2ccccc2n2c(CCC(=O)N3CCN(c4ccccc4)CC3)nnc12 | inactive: 3.39% |  |
| CC(C)c1ccc(C2c3c(-c4ccccc4O)n[nH]c3C(=O)N2Cc2ccncc2)cc1 (stereo unspecified) |  | inconclusive: 39.8 µM [cytotoxic, single point] |
| COc1ccc(NC(=O)Cn2c(=O)n(CCCC(=O)NCCc3ccc(C)cc3)c(=O)c3ccccc32)cc1Cl |  | inconclusive: 39.8 µM [rising, single point] |
| CCc1ccc(C2CC(=O)c3c([nH]c(C(=O)OCCOc4ccccc4)c3C)C2)cc1 (stereo unspecified) |  | inconclusive: 15.8 µM [cytotoxic, partial curve] |
| Cc1[nH]c2ccccc2c1C1(O)C(=O)N(Cc2ccccc2Cl)c2ccccc21 (stereo unspecified) | inactive: 2.45% |  |
| CCN(Cc1ccccc1)C(=O)c1nn(-c2ccc(OC)cc2)c(=O)c2c1c1ccccc1n2C |  | inconclusive: 39.8 µM [cytotoxic, single point] |
| CCCSc1nnc2[nH]c(=O)cc(C)n12 |  | inconclusive: 0.224 µM [rising, full curve, poor fit] |
| Cc1cccc(NC(=O)C(=O)NCC(c2cccnc2)N2CCc3ccccc3C2)c1C (stereo unspecified) |  | inconclusive: 31.6 µM [cytotoxic, single point] |
| CCOc1ccc(NC(=O)c2ccc(F)c(S(=O)(=O)N(CC)Cc3ccccc3)c2)cc1 | inactive: -39.5% |  |
| CCCCc1nn2c(=O)cc(COC(=O)C3CCCCC3)nc2s1 |  | inconclusive: 39.8 µM [cytotoxic, partial curve, poor fit] |
| COc1ccc(OC)c(NC(=O)c2cc(S(=O)(=O)NCCc3ccc(Cl)cc3)ccc2F)c1 | inactive: -21.3% |  |

| SMILES | activity change, negative = cytotoxicity | Potency |
| --- | --- | --- |
| Cc1ccc(-c2cn(-c3cccc(Cl)c3)c(S(=O)(=O)CC(=O)Nc3cccc(C)c3)n2)cc1 |  | inconclusive: 39.8 µM [cytotoxic, single point] |
| O=C(NCc1ccccc1)C1CCN(S(=O)(=O)c2ccc3c(c2)CCCN3C(=O)C2CCC2)CC1 |  | inconclusive: 25.1 µM [cytotoxic, single point] |
| CCOc1ccc(N2CC(c3nc4ccccc4n3Cc3ccccc3F)CC2=O)cc1 (stereo unspecified) |  | inconclusive: 12.6 µM [cytotoxic, partial curve, poor fit] |
| Cc1cc(C)cc(NC(=O)CCCn2c3ccccc3c(=O)c3ccccc32)c1 |  | inconclusive: 31.6 µM [cytotoxic, single point] |
| CC(=O)c1ccc(N2CCN(C(=O)CCCCn3c(=O)[nH]c4ccccc4c3=O)CC2)cc1 |  | inconclusive: 39.8 µM [cytotoxic, single point] |
| COc1ccc(C(=O)Nc2nc3c(s2)CCCC3)cc1Cl | inactive: -13.8% |  |
| Cc1cc(-c2ccc(C)c(S(=O)(=O)NCC3CCN(Cc4ccc(F)cc4)CC3)c2)on1 |  | inconclusive: 39.8 µM [cytotoxic, single point] |
| Cc1cccc(Cn2c(=O)n(CCC(=O)NCCc3ccc(Cl)cc3)c(=O)c3sccc32)c1 |  | inconclusive: 44.7 µM [cytotoxic, partial curve, poor fit] |
| Cc1nnc(N2CCC(C(=O)NCCc3ccccc3Cl)CC2)c2nn(-c3ccccc3)c(C)c12 |  | active: 35.5 µM |
| CCCCN(C)CCCNC(=O)c1cc(-c2ccc(Br)s2)nc2ccccc12 |  | inconclusive: 28.2 µM [cytotoxic, single point] |
| COc1cccc(Nc2sc(C(=O)c3ccc(F)cc3)c(N)c2C(=O)NCc2ccc(Cl)cc2)c1 | inactive: 0.758% |  |
| CN(Cc1ccccc1)S(=O)(=O)c1cc(Br)cc2c1N(C(=O)C1CC1)CC2 |  | inconclusive: 39.8 µM [rising, single point] |
| CCN(CCCNC(=O)CN1N=C(c2ccc(OC)cc2)CCC1=O)c1cccc(C)c1 |  | inconclusive: 12.6 µM [cytotoxic, partial curve] |
| Cc1cccc(N2CCN(C(=O)c3cn(CC(C)C)c(=O)c4c3c3ccccc3n4C)CC2)c1C |  | inconclusive: 39.8 µM [cytotoxic, partial curve, poor fit] |
| COc1ccc(-c2ccc(NS(=O)(=O)c3ccc(C(C)=O)cc3)cc2)nn1 | inactive: 0.0891% |  |
| COc1ccc(-c2nnc(SCC(=O)Nc3ccc(C(C)C)cc3)nc2-c2ccc(OC)c(OC)c2)cc1OC |  | inconclusive: 39.8 µM [cytotoxic, single point] |
| CCCNC(=O)c1ccc2nc(CCc3ccccc3)oc2c1 |  | inconclusive: 39.8 µM [cytotoxic, single point] |
| CCSc1ncc(Cl)c(C(=O)Nc2ccc(S(=O)(=O)N3CCCCC3)cc2)n1 |  | inconclusive: 14.1 µM [cytotoxic, partial curve, poor fit] |
| CCOCCCNc1ncnc2c1cnn2-c1ccc(C)c(C)c1 |  | inconclusive: 39.8 µM [cytotoxic, single point] |
| Cc1ccc(-c2c(C)n3c4c(=O)n(C)c(=O)n(C)c4nc3n2CCO)cc1 |  | inconclusive: 15.8 µM [cytotoxic, partial curve, poor fit] |
| COc1ccc(-c2c3c(=O)n(C)c(=O)n(C)c3c3c(C)nc4ccccc4n23)cc1 |  | inconclusive: 35.5 µM [cytotoxic, partial curve, poor fit] |

| SMILES | activity change, negative = cytotoxicity | Potency |
| --- | --- | --- |
| Cc1ccccc1-n1c(SCc2ccc(Cl)cc2)nc2[nH]ncc2c1=O |  | inconclusive: 25.1 µM [cytotoxic, single point] |
| CCN(CC)c1cc2c(cc1F)c(=O)c(S(=O)(=O)c1ccc(OC)cc1)cn2CC |  | inconclusive: 31.6 µM [cytotoxic, single point] |
| COc1ccc(CNC(=O)CSc2nc(-c3ccc(OC)cc3)cc(C(F)(F)F)n2)cc1 |  | inconclusive: 8.91 µM [rising, partial curve] |
| Cc1ccccc1CNC(=O)c1cnc2sc(N3CCOCC3)nn2c1=O | inactive: -1.6% |  |
| COc1ccc(NC(=O)CSc2nc(-c3cccs3)cc(C(F)(F)F)n2)cc1OC |  | inconclusive: 5.62 µM [cytotoxic, partial curve] |
| CCOc1ccc(CNCc2c(C(=O)O)n(Cc3ccccc3F)c3cc(OC)ccc23)cc1 | inactive: 3.48% |  |
| Cc1ccc(C)c(N2CCN(C(=O)c3ccc(NC(=O)c4nsc5ccccc45)cc3)CC2)c1 | inactive: -1.1% |  |
| O=C(NCCCN1CCN(c2ccccc2)CC1)c1ccc2nc(CCc3ccccc3)oc2c1 |  | inconclusive: 35.5 µM [cytotoxic, single point] |
| CC(Oc1ccc(Br)cc1)C(=O)N(Cc1nc(-c2ccccc2)no1)C(C)C (stereo unspecified) |  | inconclusive: 39.8 µM [cytotoxic, single point] |
| Cc1ccc(-n2c(-c3cccc(C)c3)nc3c(cnn3-c3ccccc3)c2=O)cc1 |  | inconclusive: 35.5 µM [cytotoxic, single point] |
| Cc1ccc(S(=O)(=O)Nc2ccc3c(c2)CCCN3C(=O)c2cccs2)cc1C |  | inconclusive: 25.1 µM [cytotoxic, single point] |
| Cc1ccc(/C=C/c2nc3ccccc3n2S(=O)(=O)c2cccc(Cl)c2)cc1 |  | inconclusive: 25.1 µM [cytotoxic, single point] |
| COc1ccc(CCNC(=O)c2cc(=O)c3c(C)cc(C)cc3o2)cc1OC |  | inconclusive: 31.6 µM [cytotoxic, single point] |
| COc1cc2nc(Nc3ccc(C)c(C)c3)nc(N)c2cc1OC |  | inconclusive: 39.8 µM [cytotoxic, single point] |
| O=C(CN1CCCN(Cc2cccc(F)c2)S1(=O)=O)Nc1ccc2c(c1)OCCO2 |  | inconclusive: 22.4 µM [rising, partial curve, poor fit] |
| CCS(=O)(=O)c1ncc(Cl)c(C(=O)Nc2c(C(=O)c3ccc(C)cc3)oc3ccccc23)n1 |  | inconclusive: 39.8 µM [cytotoxic, single point] |
| Cc1ccc(NC(=O)C2CCN(C(=O)c3cnn(-c4ccccc4)c3-n3cccc3)CC2)cc1C |  | inconclusive: 20 µM [cytotoxic, partial curve] |
| COc1ccc(CCNC(=O)CCCn2c(=O)c3ccccc3n(CC(=O)Nc3ccc(C)cc3Cl)c2=O)cc1OC |  | inconclusive: 31.6 µM [rising, partial curve, poor fit] |
| Cc1nn2c(=O)cc(COC(=O)C(c3ccccc3)c3ccccc3)nc2s1 |  | inconclusive: 7.08 µM [cytotoxic, single point] |
